Experimental data reported in the supplement of paper PMC12217912.
The other results are listed elsewhere or left out. The full chains were built here from the parent and the listed change. Values near 0.05 are background.

B1: TEV protease; numbered along this chain (parent)
chain: MGESLFKGPRDYNPISSSICHLTNESDGHTTSLYGIGFGPFIITNKHLFRRNNGTLVVQSLHGVFKVKDTTTLQQHLVDGRDMIIIRMPKDFPPFPQKLKFREPQREERICLVTTNFQTKSMSSMVSDTSCTFPSGDGIFWKHWIQTKDGQCGSPLVSTRDGFIVGIHSASNFTNTNNYFTSVPKNFMELLTNQEAQQWVSGWRLNADSVLWGGHKVFMVKPEEPFQPVKEATQL

Variants of: B1
Assay: raw area under fraction-flipped curve 0-4 h after induction (AUC4h, not background-subtracted), DNA-recorder readout of cleavage of the substrate (dimensionless); higher = more cleavage of the substrate by the protease variant
Details: temperature: 34 °C; time window: 0-4 h after rhamnose induction
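Further: Bxb1 expression induced with 0.2% (w/v) L-rhamnose at OD600 near 0.5, cultures sampled hourly, flipped fraction per protease–substrate barcode pair counted by paired-end Illumina sequencing.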

| Variant | area with substrate DNLYFQS | area with substrate FNLYFQS | area with substrate HNLYFQS | area with substrate LNLYFQS | area with substrate PNLYFQS | area with substrate SNLYFQS | area with substrate TNLYFQS | area with substrate WNLYFQS | area with substrate YNLYFQS | area with substrate CNLYFQS | area with substrate GNLYFQS | area with substrate INLYFQS | area with substrate KNLYFQS | area with substrate MNLYFQS | area with substrate NNLYFQS | area with substrate VNLYFQS | area with substrate RNLYFQS | area with substrate QNLYFQS |
| --- | --- | --- | --- | --- | --- | --- | --- | --- | --- | --- | --- | --- | --- | --- | --- | --- | --- | --- |
| M88P | 0.0512 | 0.0672 | 0.0431 | 0.0595 | 0.0813 | 0.0592 | 0.0559 | 0.0812 | 0.0485 |  |  |  |  |  |  |  |  |  |
| S201D | 0.0611 |  |  |  |  | 0.0621 | 0.0633 | 0.0485 | 0.0616 | 0.063 | 0.0644 | 0.0642 | 0.0441 | 0.0333 | 0.0564 |  |  |  |
| H215Q | 0.0372 |  |  | 0.0604 |  | 0.0681 | 0.067 | 0.0607 |  | 0.0646 |  | 0.0588 | 0.0833 |  |  | 0.0585 |  |  |
| K216T |  | 0.0744 | 0.0614 |  | 0.0681 | 0.068 | 0.0638 | 0.0659 | 0.0574 | 0.0802 | 0.0648 | 0.0542 |  | 0.0877 |  | 0.0541 | 0.0501 |  |
| K216N |  | 0.0663 | 0.0664 | 0.0625 | 0.0614 |  | 0.0736 | 0.0697 | 0.0694 | 0.0733 |  | 0.0639 |  |  |  |  | 0.0597 |  |
| K216V |  |  | 0.0597 | 0.0626 | 0.0685 | 0.0679 | 0.0687 | 0.063 |  | 0.0611 |  |  | 0.0722 |  | 0.0663 | 0.0419 |  |  |
| Q194G | 0.0664 |  | 0.0607 |  | 0.0906 | 0.0383 | 0.0667 | 0.056 |  | 0.0633 |  | 0.0845 | 0.0809 | 0.0745 |  | 0.0762 |  |  |
| L191C | 0.0679 |  | 0.0667 |  | 0.0528 |  | 0.0611 | 0.0509 | 0.0551 | 0.0559 | 0.0457 | 0.0667 | 0.0682 | 0.101 | 0.0715 |  |  | 0.0827 |
| A207S | 0.101 | 0.0724 | 0.0708 | 0.0614 | 0.0494 | 0.0814 | 0.0683 | 0.052 |  | 0.063 |  | 0.0663 | 0.0531 | 0.0675 | 0.0803 | 0.0477 |  |  |
| T192N | 0.0752 | 0.064 | 0.0679 | 0.0655 | 0.064 | 0.0352 | 0.0609 | 0.0419 |  | 0.0383 | 0.0719 | 0.082 | 0.0681 | 0.0558 | 0.0722 | 0.0692 | 0.0781 |  |
| T192R | 0.0947 |  | 0.06 | 0.0758 |  | 0.0713 | 0.0578 | 0.0558 | 0.0539 | 0.0544 | 0.06 | 0.0574 |  |  |  | 0.073 |  | 0.0644 |
| T192K | 0.0795 | 0.0402 | 0.0639 | 0.0613 |  | 0.0517 | 0.0687 | 0.0554 |  | 0.0558 | 0.0632 |  |  | 0.067 |  |  |  |  |
| T192L |  | 0.0716 | 0.0679 | 0.0914 |  | 0.103 | 0.0646 | 0.0607 |  | 0.0927 | 0.0805 | 0.0605 | 0.07 | 0.0608 |  | 0.0656 |  |  |
| T192S |  | 0.0695 | 0.0384 | 0.0723 | 0.0761 | 0.0662 | 0.0712 | 0.0515 | 0.0722 | 0.0876 | 0.0629 | 0.0628 |  |  | 0.0696 |  |  |  |
| T176G |  | 0.0611 | 0.0547 | 0.0541 | 0.0601 |  |  | 0.0574 | 0.0592 | 0.046 |  |  | 0.0704 |  |  | 0.0604 |  |  |
| T176P |  |  | 0.0803 | 0.0701 | 0.0713 | 0.064 | 0.0666 | 0.0632 | 0.054 | 0.066 |  |  |  |  | 0.0395 |  | 0.0615 |  |
| T72F | 0.0614 | 0.0601 | 0.0583 | 0.0664 | 0.0574 | 0.0693 | 0.0565 | 0.0559 |  |  | 0.0873 |  |  | 0.0585 |  |  |  |  |
| G80A | 0.0949 |  |  | 0.071 | 0.0855 |  | 0.0914 | 0.0644 |  |  |  | 0.0665 | 0.0668 |  |  |  |  |  |
| P184Y |  | 0.0569 | 0.0439 | 0.0601 | 0.0404 | 0.0305 | 0.054 | 0.0638 | 0.0601 | 0.0583 |  | 0.0593 | 0.0574 |  |  |  |  |  |
| P184A | 0.0667 | 0.0387 | 0.0543 | 0.0681 | 0.0536 | 0.0602 | 0.0876 | 0.0778 | 0.0757 | 0.0595 | 0.0614 | 0.0731 | 0.0602 | 0.0499 |  | 0.0645 |  | 0.0735 |
| P184R |  |  | 0.0375 |  | 0.0536 |  | 0.058 |  | 0.0429 | 0.0544 |  | 0.0494 |  |  | 0.0603 |  |  | 0.0895 |
| P184Q | 0.0646 |  |  | 0.0653 | 0.052 | 0.0649 | 0.0579 | 0.0601 |  | 0.0559 |  |  | 0.0561 | 0.0577 |  |  | 0.0477 | 0.0573 |
| P184K | 0.0669 | 0.0594 | 0.0701 |  | 0.0567 |  | 0.0659 |  | 0.0496 | 0.0597 | 0.0617 |  |  | 0.0587 | 0.0674 |  |  |  |
| P184E |  | 0.0384 | 0.054 | 0.0702 | 0.0579 | 0.0612 | 0.0862 | 0.0526 |  | 0.0635 | 0.0429 |  |  | 0.0562 | 0.0565 |  |  |  |
| Q198F | 0.0613 | 0.0569 | 0.0632 | 0.0577 |  | 0.0406 | 0.0671 | 0.0606 | 0.0525 | 0.0623 | 0.0679 | 0.072 | 0.0579 | 0.0701 | 0.0556 | 0.0632 | 0.0572 | 0.0683 |
| N206F | 0.0709 |  | 0.058 | 0.0507 | 0.064 |  | 0.0578 | 0.0509 | 0.0391 | 0.0636 |  | 0.0513 | 0.0719 |  | 0.0645 |  |  |  |
| P96W | 0.0677 |  | 0.0572 | 0.0589 |  | 0.0586 | 0.0599 | 0.0622 |  |  | 0.0678 | 0.0604 |  |  | 0.044 | 0.0782 | 0.0567 |  |
| L112A | 0.0652 |  | 0.0581 | 0.0572 | 0.0507 | 0.0473 | 0.0606 | 0.0631 | 0.0547 |  | 0.0627 | 0.0662 | 0.0692 | 0.0607 |  |  | 0.0651 |  |
| K221E | 0.0606 | 0.0599 | 0.0687 | 0.0595 | 0.0555 | 0.0583 | 0.052 | 0.0591 |  | 0.0557 | 0.0478 | 0.056 | 0.0729 |  |  | 0.0591 |  | 0.0441 |
| W212V | 0.0613 |  | 0.0603 | 0.0424 |  | 0.0663 |  | 0.0628 | 0.0682 | 0.0793 |  | 0.0577 | 0.0621 | 0.0698 |  | 0.0665 |  |  |
